From PubChem BioAssay AID686978 (National Center for Advancing Translational Sciences (NCATS), 2013)
The whole screen tested about 420,000 compounds, of which about 64,000 (15%) were called active. Inconclusive results, whose numbers are uncertain, are shown with a selection of clear calls. Calls come from the whole dose curve; as a rule, active = well fitted inhibition curve with a large enough effect; inconclusive = small, poorly fitted or top-dose-only effect; inactive = flat fitted curve, though single readings scatter. Potencies of inconclusive entries are left out as doubtful fits.

assay: qHTS for Inhibitors of human tyrosyl-DNA phosphodiesterase 1 (TDP1): qHTS in cells in absence of CPT; conditions: DT40 Tdp1-/- hTDP1 cells, no CPT, ATP luminescence, 48 h; activity change, negative = growth inhibition: at 46.2 µM (top of the series) unless noted; note: nearly all actives have a fitted effect of over 55% in size
Procedure, shortened: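 Chicken DT40 Tdp1-/- cells stably complemented with human TDP1 were seeded at 400 cells/well with DMSO in place of 20 nM camptothecin. After compound pinning, cells grew at least 48 hr at 37 °C; viability read by CellTiter-Glo luminescence.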
% is set by controls: 0 for no effect and ±100 for the full control effect; potency is the fitted concentration of half-maximal effect; tags give direction and shape of the fitted curve.

Row | Structure (SMILES) | Potency | activity change, negative = growth inhibition
1 | COc1cc2c(cc1OC)C(C)N(C(=O)c1cccc([N+](=O)[O-])c1)CC2 (centres undefined) | inconclusive [inhibitor, single point] | 
2 | O=c1[nH]c(SCc2nc3c(cnn3-c3ccccc3)c(=O)[nH]2)nc2ccccc12 | active: 20.6 µM | 
3 | Cc1ccc2nc(-c3ccc(N4CCOCC4)cc3)c(Nc3ccccc3C)n2c1 | active: 18.4 µM | 
4 | COc1ccc(C(=O)C2CCCN(C(=O)c3ccc(CSC)o3)C2)cc1F (centres undefined) | inconclusive [inhibitor, single point] | 
5 | CC(C)Cc1ccc(CN2CCCC(NC(=O)CCn3cnnn3)C2)cc1 (centres undefined) | inconclusive [inhibitor, single point] | 
6 | OC(c1ccc(-c2ccccc2)cc1)c1ncc(-c2ccc(F)cc2)[nH]1 (centres undefined) | inconclusive [inhibitor, single point] | 
7 | CCCCCCn1c(CN2CCN(C(=O)c3ccco3)CC2)nc2c1c(=O)n(C)c(=O)n2C | inconclusive [inhibitor, single point] | 
8 | Cc1ccsc1-c1ccnc(-n2cccc2)n1 | inconclusive [inhibitor, partial curve, poor fit] | 
9 | Cc1oc(-c2ccc(Cl)cc2)nc1CN1CCCC(C(=O)NCc2cccnc2)C1 (centres undefined) | active: 11.6 µM | 
10 | CC(C(=O)Nc1ccc(Cl)cc1)N1C(=O)NC2(CCCC2)C1=O (centres undefined) | active: 20.6 µM | 
11 | CCOc1ccc(NC(=O)COc2ccccc2)c([N+](=O)[O-])c1 | inconclusive [inhibitor, single point] | 
12 | Cc1ccc(-n2ncc(C(=O)NCCN3CCc4ccccc4C3)c2C2CCN(C(=O)OC(C)(C)C)CC2)c(C)c1 | inconclusive [inhibitor, single point] | 
13 | Cc1[nH]c2ccccc2c1C1(O)C(=O)N(Cc2ccccc2)c2ccc(Br)cc21 (centres undefined) | active: 4.61 µM | 
14 | CCCNC(=O)c1cc(C2CCCCN2C(=O)c2ccc(C(C)C)cc2)on1 (centres undefined) | active: 10.3 µM | 
15 | Cc1ccc(S(=O)(=O)N2CCCCC2)cc1NC(=O)c1ccc(Cl)nc1 | inconclusive [inhibitor, single point] | 
16 | COc1cc(/C=C2\COC/C(=C\c3cc(OC)c(OC)c(OC)c3)C2=O)cc(OC)c1OC | active: 0.58 µM | 
17 | CC(=O)N1CCCc2cc(S(=O)(=O)N3CCCC(C(=O)Nc4cccc(C)c4)C3)ccc21 (centres undefined) |  | inactive: -18.1%
18 | O=C(c1ccc(N2CCCC2)c([N+](=O)[O-])c1)N1CCN(c2ccccn2)CC1 |  | inactive: -11.9%
19 | COc1ccccc1CNc1ncnc2onc(-c3ccc(Cl)cc3)c12 | active: 20.6 µM | 
20 | COC(=O)C(NNc1ccccc1)(NC(=O)c1ccc(F)cc1)C(F)(F)F (centres undefined) | inconclusive [inhibitor, single point] | 
21 | Cc1ccc(NC(=S)NNC(=S)NC2CCCCC2)cc1 | inconclusive [inhibitor, single point] | 
22 | C=CCOc1ccc(CN(C)C(=O)C2CCCO2)cc1 (centres undefined) | inconclusive [inhibitor, single point] | 
23 | Cc1cccc(NC(=O)c2cccc(NC(=O)c3ccco3)c2)c1C | inconclusive [inhibitor, partial curve, poor fit] | 
24 | COc1ccc(-n2cc(-c3ccccc3)nc2SC)cc1 |  | inactive: 0.96%
25 | Cc1ccc(CNC(=O)CSc2nc3ccsc3c(=O)n2Cc2ccccn2)cc1 |  | inactive: -13.9%

Row | Structure (SMILES) | Potency | activity change, negative = growth inhibition
26 | Cc1ccc(NC(=O)Nc2csc3c2CCCC3)c(C)c1 |  | inactive: -29.3%
27 | O=C(NC1CCCC1)C(c1ccccn1)N(C(=O)c1csnn1)C1CCCC1 (centres undefined) | inconclusive [inhibitor, single point] | 
28 | O=c1oc2c(CN3CCCCC3)c(O)ccc2c2c1CCCCC2 |  | inconclusive: -33.4% [inhibitor]
29 | C=CCN1C(=O)C2C3C=CC(C2C1=O)C1C2C(=O)N(CC=C)C(=O)C2C31 (centres undefined) | inconclusive [inhibitor, single point] | 
30 | CCCCC(C)(O)C/C=C/[C@H]1[C@H](O)CC(=O)[C@@H]1CCCCCCC(=O)OC (some centres undefined) | active: 1.5 µM | 
31 | FC(F)(F)c1nnc(-c2ccccc2)nc1Oc1ccc(Cl)cc1Cl | inconclusive [inhibitor, single point] | 
32 | O=C1/C(=C\c2ccc(Cl)cc2)CCC1CNc1ccc(Cl)cc1 (centres undefined) | active: 2.59 µM | 
33 | O=C(CN1C(=O)C2CC=CCC2C1=O)Nc1nc2ccccc2s1 (centres undefined) |  | inactive: 11.8%
34 | O=[N+]([O-])c1ccc(OCc2cnc(Cl)s2)c([N+](=O)[O-])c1 |  | inconclusive: -30.7% [inhibitor]
35 | CCCS(=O)(=O)NCCc1sc2nc(-c3ccc(Cl)cc3)nn2c1C | active: 8.2 µM | 
36 | Cc1cc(C(=O)Nc2ccc(Cl)cc2)c2c(C)nn(-c3ccccc3)c2n1 | inconclusive [inhibitor, single point] | 
37 | CCOc1ccc(OCC)c(NC(=O)CCCN2C(=S)NC(C)(C)CC2C)c1 (centres undefined) | active: 16.4 µM | 
38 | COc1ccc(OC)c(S(=O)(=O)NCC(=O)NC2CCCCCC2)c1 |  | inactive: -5.89%
39 | O=C(O)CCC(CNS(=O)(=O)c1ccccc1)C(F)(F)F (centres undefined) |  | inactive: -4.41%
40 | CN1CCN(c2ncc3nc(-c4ccc(Cl)cc4)c(=O)n(Cc4ccc(F)cc4)c3n2)CC1 | inconclusive [inhibitor, single point] | 
41 | O=S(=O)(CCc1ccccc1)CS(=O)(=O)CCc1ccccc1 |  | inactive: 2.59%
42 | NC(=O)C1CCN(C(=O)c2ccccc2NC(=O)c2nsc3ccccc23)CC1 |  | inactive: -8.02%
43 | O=C(CCc1ccccc1)NC1(Cc2ccccc2)CCN(CCc2cccs2)C1=O (centres undefined) | inconclusive [inhibitor, single point] | 
44 | O=C(/C=C/c1ccc(Br)cc1)NC(=S)NNC(=O)c1ccco1 | active: 18.4 µM | 
45 | COc1ccccc1N1CCN(S(=O)(=O)c2c(C)ccc3nsnc23)CC1 | inconclusive [inhibitor, single point] | 
46 | COc1ccc(C2C(C(=O)N3CCOCC3)CCC(=O)N2c2cc(OC)c(OC)c(OC)c2)cc1 (centres undefined) |  | inactive: -1.63%
47 | CN1CCN(c2ccc(-c3cc(NC=O)c4ncc(-c5ccc(F)cc5)n4c3)cc2)CC1 | inconclusive [inhibitor, full curve, poor fit] | 
48 | CN1CCC(N(C)CC(=O)Nc2cccc(Oc3ccccc3)c2)CC1 |  | inactive: -13.4%
49 | O=C(C(=O)N1CCN(c2ccncc2)CC1)c1cccc(Br)c1 | active: 14.6 µM | 
50 | COc1ccccc1Nc1nn2c(=O)c3ccc(C(=O)NC4CCCCC4)cc3nc2s1 | active: 3.66 µM | 

Row | Structure (SMILES) | Potency | activity change, negative = growth inhibition
51 | CCN(CC)S(=O)(=O)c1ccc(OCC(=O)NC(=O)c2ccccc2OC)c([N+](=O)[O-])c1 |  | inactive: -19.3%
52 | FC(F)(F)c1cnc(Oc2ccccc2-c2nnc(-c3ccc(Cl)cc3)o2)c(Cl)c1 | inconclusive [inhibitor, single point] | 
53 | COc1ccc(CN2C[C@@H](CO)O[C@@H](n3cnc4c(N(C)C)ncnc43)C2)cc1 |  | inactive: -20.2%
54 | CCOc1cc(CNCCN2CCOCC2)ccc1OCc1ccccc1Cl | active: 18.4 µM | 
55 | C/C(CC(=O)Nc1c(C)cc(C)cc1C)=N\NC(=O)OC(C)(C)C |  | inactive: -4.03%
56 | COc1ccccc1NCC(O)Cn1c2ccccc2c2ccccc21 (centres undefined) | inconclusive [inhibitor, single point] | 
57 | Cc1cccc(Oc2ccccc2NC(=O)CSCC(=O)Nc2cc(C)on2)c1 | inconclusive [inhibitor, single point] | 
58 | CNc1oc(-c2ccc(OCc3ccccc3)cc2)nc1C#N |  | inactive: -22.1%
59 | Cc1cccc2c(C(=O)n3cccn3)cc(-c3ccccc3Cl)nc12 | inconclusive [inhibitor, single point] | 
60 | CCOC(=O)N1CCc2c(sc(NCc3ccc(N(C)C)cc3)c2C(=O)Nc2ccccc2OCC)C1 | active: 8.2 µM | 
61 | COc1ccc(CNC(=O)CCn2c(=O)[nH]c3ccccc3c2=O)cc1 |  | inactive: 2.46%
62 | Nc1ccc2nc(-c3ccc(Cl)cc3)[nH]c2c1 | active: 4.61 µM | 
63 | C#CCNC(=O)C1=C[C@@H](c2coc3ccccc3c2=O)C[C@@H](OCc2ccc(CO)cc2)O1 |  | inactive: -22.8%
64 | COc1ccc(-n2cnnc2SCC(=O)N2CCN(c3ccccc3)CC2)cc1 | inconclusive [inhibitor, single point] | 
65 | O=C(CSc1nc2ccccc2c(=O)n1-c1ccccc1)c1c[nH]c2ccccc12 | active: 6.51 µM | 
66 | COC(=O)[C@@H]1C[C@@H]2CC[C@@H](O)C[C@@H]2N1Cc1ccc(C(F)(F)F)cc1 | inconclusive [inhibitor, single point] | 
67 | CC1=C(C)CC(C(=O)Nc2nc(-c3ccc(C)cc3C)c(C)s2)C(C(=O)O)C1 (centres undefined) |  | inactive: -17.3%
68 | CC(=O)N1c2ccc(S(=O)(=O)N3c4ccccc4CC3C)cc2CC1C (centres undefined) | inconclusive [inhibitor, single point] | 
69 | CN(C)c1nc(-c2cccnc2)nc2ccccc12 | inconclusive [inhibitor, partial curve, poor fit] | 
70 | CCn1c2ccccc2c2nc3cc(C(=O)O)ccc3nc21 |  | inactive: -26.3%
71 | CCN(CC)CCNC(=O)Cn1cnc2sc(C)c(S(=O)(=O)N3CCN(c4ccccc4OC)CC3)c2c1=O | inactive | 
72 | CC1CCCc2sc3ncn(N)c(=N)c3c21 (centres undefined) | inconclusive [inhibitor, single point] | 
73 | Cc1ccc(C)c(C(=O)COC(=O)c2ccc(C)c(S(=O)(=O)N3CCOCC3)c2)c1 | inconclusive [inhibitor, single point] | 
74 | CCc1ccc(S(=O)(=O)Nc2cc3c(cc2C)n(C)c(=O)n3C)cc1 | active: 2.91 µM | 
